Source: PubChem BioAssay AID652106 (National Center for Advancing Translational Sciences (NCATS), 2013)
In all, about 370,000 compounds went through this assay and about 500 (0.14%) were called active. Inconclusive means that the source gave no clear call. Such entries were picked first, then a sample of the others. Calls follow the shape of the dose curve; as a rule, active = well fitted activation curve with a large enough effect; inconclusive = small, poorly fitted or top-dose-only effect; inactive = no such curve, though single readings can be large or run the other way. Potencies of inconclusive entries are doubtful fits and often do not repeat.

Test: qHTS of alpha-syn Inhibitors; also: nearly all actives have a fitted effect of over 65% in size; as to growth rescue (activation): % of control where 0% means no effect
Settings: Yeast expressing alpha-synuclein, BacTiter-Glo, 24 h; Potency: growth rescue unless noted; growth rescue (activation): at 46.1 µM (top of the series) unless noted
Outline: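 Rescue of yeast growth: cells expressing toxic alpha-synuclein, induced in galactose at OD600 0.02, incubated with compound 24 h at 30 C. ATP luminescence quantified growth; inhibitors of toxicity appear as activators.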
Potency is read from the fitted curve at half-maximal effect; tags tell the direction and shape of the fitted curve.

Potency, inconclusive:
Nc1ncnc2nn(C3OC(CO)C(O)C3O)nc12 (stereo not given) 35.5 µM [activator, single point]
CCOC(=O)C1=C(O)/C(=C/c2ccc(-c3ccccc3C(=O)O)o2)SC1=Nc1ccc(C)cc1 31.6 µM [activator, single point]
Cc1cc(=O)n2nc(N3CCCC3C(=O)Nc3ccccc3C)sc2n1 (stereo not given) 31.6 µM [activator, single point]
O=C(COc1ccc(Cl)cc1Br)N1CCN(c2ncccn2)CC1 14.1 µM [activator, single point]
COc1ccc(OC)c(Nc2nc(C)nc3c2oc2ccccc23)c1 35.5 µM [activator, single point]
Cc1cccc(NS(=O)(=O)c2ccc(-c3cnc(C4CC4)o3)cc2)c1 25.1 µM [activator, single point]
COCCNc1nc(NCCNC(C)=O)c2sc(-c3ccccc3)cc2n1 5.62 µM [activator, single point]
COc1ccc(-c2cc(CC3(C(=O)O)CCN(C(=O)OC(C)(C)C)CC3)on2)c(OC)c1 35.5 µM [activator, single point]
Cc1ccc(C)c(C(=O)COC(=O)c2n[nH]c3ccccc23)c1 35.5 µM [activator, single point]
Cc1cccc(N2CCN(C(=O)COc3ccc4c(C)cc(=O)oc4c3C)CC2)c1C 12.6 µM [activator, single point]
Cc1ccc(CN2CC(N3CCCCC3)CS2(=O)=O)cc1 (stereo not given) 35.5 µM [activator, single point]
COCCn1c(SCc2nc(N)nc(Nc3ccccc3C)n2)nc2ccccc2c1=O 25.1 µM [activator, single point]
O=C(c1ccccc1)c1ccc(O)c(O)c1O 35.5 µM [activator, single point]
N#C/C(C(N)=O)=c1/ccc2c(c1)N1C3=C(CCCC3)CC3CCCCC31N=2 (stereo not given) 14.1 µM [activator, single point]
COc1ccccc1NCC(O)COc1ccc(C(C)(C)C)cc1 (stereo not given) 31.6 µM [activator, single point]
CCCOCCOC(=O)c1[nH]c2c(c1C)C(=O)CC(c1cc(OC)ccc1OC)C2 (stereo not given) 22.4 µM [activator, single point]
O=C(Nc1nnc(-c2ccccc2)o1)c1ccc(Cl)cc1 3.16 µM [activator, partial curve, poor fit]
O=C(Nc1ccc(Br)cc1Br)Nc1cccc2[nH]c([C@@H]3O[C@H](CO)[C@@H](O)[C@H](O)[C@H]3O)nc12 5.62 µM [activator, single point]
c1cc2cn[nH]c2cc1NC1CCCCCC1 35.5 µM [activator, single point]
Oc1ccc(Cl)cc1C1=NNC(c2ccc(Cl)cc2)C1 (stereo not given) 25.1 µM [activator, single point]
Cc1ccc(/C=C/C(=O)CCC(=O)O)cc1 14.1 µM [activator, single point]
O=C(CC(=O)c1cc(Cl)ccc1O)c1ccccc1 20 µM [activator, single point]
O=C(O)/C=C/c1cn(-c2ccccc2)nc1-c1cc2ccccc2o1 14.1 µM [activator, single point]
CCOCC(=O)Nc1cc(C(=O)Nc2cccc(C)c2C)ccc1Cl 5.62 µM [activator, single point]
CCC(C)c1ccc(S(=O)(=O)Nc2cccnc2)cc1 (stereo not given) 28.2 µM [activator, single point]
CCOc1ccc(N2C(=O)CC(SCc3nc4ccccc4[nH]3)C2=O)cc1 (stereo not given) 31.6 µM [activator, single point]
CC[C@H](C)[C@H]1CNC(=S)N1CC1CCN(CC)CC1 5.62 µM [activator, single point]
COc1cc(OC)c(/C=N/NC(=O)c2ccc(Cn3nc([N+](=O)[O-])cc3C)cc2)c(OC)c1 35.5 µM [activator, single point]

Potency, active:
CC(C)(C)NC(=O)C(c1ccccc1F)n1c(=O)c(-c2cc3ccccc3[nH]2)nc2ccccc21 (stereo not given) 7.08 µM

Growth rescue (activation), inconclusive:
N=c1c2c(-c3ccccc3)c(-c3ccccc3)n(Cc3ccco3)c2ncn1CCCn1ccnc1 -36.1% [activator]

Growth rescue (activation), inactive:
CCOc1ccc2[nH]c(C)c(CN3CCN(CC)CC3)c(=O)c2c1 -0.902%
c1ccc2c(c1)oc1c(NCCCN3CCOCC3)ncnc12 -5.42%
CC1(c2ccccc2)NC(=O)N(CC(=O)NCC2CCCO2)C1=O (stereo not given) -1.5%
Cc1ccccc1NC(=S)NCc1ccc(F)cc1 18.4%
CC(O)C(NS(=O)(=O)c1ccc(Cl)cc1)C(=O)OCCOc1ccc(F)cc1 (stereo not given) -0.968%
O=C(N[C@H]1C/C=C\C[C@H](CC(=O)N(CCO)Cc2ccccc2)C(=O)N[C@H](Cc2c[nH]c3ccccc23)COC1=O)OCC1c2ccccc2-c2ccccc21 1.97%
CC(=O)Nc1ccc(S(=O)(=O)N(C)CC(=O)N/N=C/c2ccc(C(=O)O)cc2)cc1 19.5%
CC(=O)c1ccc(NC(=O)C[n+]2cccc(C)c2)cc1 2.17%
OC(CN1C2=NCCCN2c2ccccc21)c1ccc(Cl)cc1 (stereo not given) -0.763%
Cc1ccc(-c2noc(/C=C/c3ccccc3)n2)cc1 -14.1%
Clc1cccc(Cc2c(-c3cccc(Br)c3)nc3ccc(Br)cn23)c1 -8.47%
CN(C)c1ccc(N=Nc2ccnc3ccccc23)cc1 -3.53%
COC(=O)c1sc2cnccc2c1N 0.0839%
COC(=O)c1ccc(CN(Cc2ccc(C(=O)OC)o2)C(C)(C)C)o1 1.21%
O=C(c1ccccn1)N1N=C2/C(=C/c3ccc(F)cc3)CCCC2C1c1ccc(F)cc1 (stereo not given) 1.49%
